This is one part of the list. The full chains were built here from the parent and the listed change. Values near 0.05 are background.
B1: TEV protease; numbered along this chain (parent)
chain: MGESLFKGPRDYNPISSSICHLTNESDGHTTSLYGIGFGPFIITNKHLFRRNNGTLVVQSLHGVFKVKDTTTLQQHLVDGRDMIIIRMPKDFPPFPQKLKFREPQREERICLVTTNFQTKSMSSMVSDTSCTFPSGDGIFWKHWIQTKDGQCGSPLVSTRDGFIVGIHSASNFTNTNNYFTSVPKNFMELLTNQEAQQWVSGWRLNADSVLWGGHKVFMVKPEEPFQPVKEATQL

Variants of: B1
Assay: raw area under fraction-flipped curve 0-4 h after induction (AUC4h, not background-subtracted), DNA-recorder readout of cleavage of the substrate (dimensionless); higher = more cleavage of the substrate by the protease variant
Conditions: temperature: 34 °C; time window: 0-4 h after rhamnose induction
Experimental: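 In vivo DNA recorder in E. coli TOP10(DE3) ΔrhaA at 34 °C. Each TEVp single-site mutant (parent TEVp 0) is paired with a single-site variant of the 7-mer TEVs (canonical ENLYFQ|S). The substrate sits between flexible linkers in a Bxb1-sfGFP-TEVs-SsrA fusion, so cleavage stabilises Bxb1 and speeds flipping of a recombination array, read by NGS. The value is the raw area under the fraction-flipped curve over 0-4 h after rhamnose induction (AUC4h), with ≥20 reads per time point. It is not background-subtracted; inactive controls average about 0.047.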
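Also: Bxb1 expression induced with 0.2% (w/v) L-rhamnose at OD600 near 0.5, cultures sampled hourly, flipped fraction per protease–substrate barcode pair counted by paired-end Illumina sequencing.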

Variant | area with substrate ENLAFQS | area with substrate ENLDFQS | area with substrate ENLFFQS | area with substrate ENLGFQS | area with substrate ENLHFQS | area with substrate ENLKFQS | area with substrate ENLMFQS | area with substrate ENLNFQS | area with substrate ENLRFQS | area with substrate ENLSFQS | area with substrate ENLVFQS | area with substrate ENLWFQS | area with substrate ENLCFQS | area with substrate ENLEFQS | area with substrate ENLIFQS | area with substrate ENLLFQS | area with substrate ENLPFQS | area with substrate ENLQFQS | area with substrate ENLTFQS
MGESLFKGPRDYNPISSSICHLTNESDGHTTSLYGIGFGPFIITNKHLFRRNNGTLVVQSLHGVFKVKDTTTLQQHLVDGRDMIIIRMPKDFPPFPQKLKFREPQREERICLVTTNFQTKSMSSMVSDTSCTFPSGDGIFWKHWIQTKDGQCGSPLVSTRDGFIVGIHSASNFTNTNNYFTSVGKNFMELLTNQEAQQWVSGWRLNADSVLWGGHKVFMVKPEEPFQPVKEATQL [P184G] | 0.059 | 0.0526 | 0.0632 | 0.084 | 0.0681 | 0.066 | 0.0845 | 0.0365 | 0.0601 | 0.0552 | 0.0845 | 0.0523 | – | – | – | – | – | – | –
MGESLFKGPRDYNPISSSICHLTNESDGHTTSLYGIGFGPFIITNKHLFRRNNGTLVVQSLHGVFKVKDTTTLQQHLVDGRDMIIIRMPKDFPPFPQKLKFREPQREERICLVTTNFQTKSMSSMVSDTSCTFPSGDGIFWKHWIQTKDGQCGSPLVSTRDGFIVGIHSASNFTNTNNYFTSVIKNFMELLTNQEAQQWVSGWRLNADSVLWGGHKVFMVKPEEPFQPVKEATQL [P184I] | 0.0621 | 0.0607 | 0.0575 | 0.0959 | 0.0521 | 0.0721 | 0.04 | – | 0.0704 | 0.0724 | – | 0.0925 | 0.0604 | 0.047 | 0.0587 | 0.0622 | 0.0571 | 0.0502 | 0.0659
MGESLFKGPRDYNPIYSSICHLTNESDGHTTSLYGIGFGPFIITNKHLFRRNNGTLVVQSLHGVFKVKDTTTLQQHLVDGRDMIIIRMPKDFPPFPQKLKFREPQREERICLVTTNFQTKSMSSMVSDTSCTFPSGDGIFWKHWIQTKDGQCGSPLVSTRDGFIVGIHSASNFTNTNNYFTSVPKNFMELLTNQEAQQWVSGWRLNADSVLWGGHKVFMVKPEEPFQPVKEATQL [S16Y] | 0.0674 | 0.0685 | 0.0964 | – | 0.0678 | – | – | 0.0729 | – | 0.0651 | – | 0.0707 | – | 0.0549 | – | 0.0675 | 0.0668 | 0.0918 | 0.0717
MGESLFKGPRDYNPIASSICHLTNESDGHTTSLYGIGFGPFIITNKHLFRRNNGTLVVQSLHGVFKVKDTTTLQQHLVDGRDMIIIRMPKDFPPFPQKLKFREPQREERICLVTTNFQTKSMSSMVSDTSCTFPSGDGIFWKHWIQTKDGQCGSPLVSTRDGFIVGIHSASNFTNTNNYFTSVPKNFMELLTNQEAQQWVSGWRLNADSVLWGGHKVFMVKPEEPFQPVKEATQL [S16A] | 0.105 | 0.0601 | 0.095 | 0.0651 | 0.0741 | 0.0778 | 0.0945 | 0.0507 | – | 0.0609 | – | 0.0534 | 0.0533 | – | 0.0798 | – | – | 0.0795 | –
MGESLFKGPRDYNPISSSICHLTNESDGHCTSLYGIGFGPFIITNKHLFRRNNGTLVVQSLHGVFKVKDTTTLQQHLVDGRDMIIIRMPKDFPPFPQKLKFREPQREERICLVTTNFQTKSMSSMVSDTSCTFPSGDGIFWKHWIQTKDGQCGSPLVSTRDGFIVGIHSASNFTNTNNYFTSVPKNFMELLTNQEAQQWVSGWRLNADSVLWGGHKVFMVKPEEPFQPVKEATQL [T30C] | 0.058 | 0.0588 | 0.0853 | 0.0661 | 0.0671 | 0.0829 | 0.0676 | 0.065 | 0.0293 | 0.0647 | 0.0894 | 0.0672 | 0.0714 | 0.0642 | 0.0959 | 0.0722 | 0.0615 | 0.0494 | 0.0568
MGESLFKGPRDYNPISSSICHLTNESDGHTTSLYGIGFGPFIITNKHLFRRNNGTLVVQSLHGVFKVKDTTTLQQHLVDGRDMIIIRMPKDFPPFPQKLKFREPQREERICLVTTNFQTKSMSSMVSDTSCTFPSGDGIFWKHWIQTKDGQMGSPLVSTRDGFIVGIHSASNFTNTNNYFTSVPKNFMELLTNQEAQQWVSGWRLNADSVLWGGHKVFMVKPEEPFQPVKEATQL [C152M] | 0.0647 | 0.0625 | 0.0751 | – | 0.054 | – | – | – | – | 0.0468 | – | – | – | – | 0.066 | 0.0701 | 0.0918 | – | –
MGESLFKGPRDYNPISSSICHLTNESDGHTTSLYGIGFGPFIITNKHLFRRNNGTLVVQSLHGVFKVKDTTTLQQHLVDGRDMIIIRMPKDFPPFPQKLKFREPQREERICLVTTNFQTKSMSSMVSDTSCTFPSGDGIFWKHWIQTKDGQCGSPLVSTRDGFIVGIHSASNFTNTNNYFTSVPKNFMELLTNQEAQQWVSGWRLNAVSVLWGGHKVFMVKPEEPFQPVKEATQL [D208V] | 0.0427 | 0.0545 | 0.0691 | 0.0582 | 0.0634 | 0.0607 | – | 0.0579 | 0.0676 | – | 0.0669 | – | 0.0592 | 0.0667 | – | 0.0548 | – | – | –
MGESLFKGPRDYNPISSSICHLTNESDGHTTSLYGIGFGPFIITNKHLFRRNNGTLVVQSLHGVFKVKDTTTLQQHLVDGRDMIIIRMPKDFPPFPQKLKFREPQREERICLVTTNFQTKSMSSMVSDTSCTFPSTDGIFWKHWIQTKDGQCGSPLVSTRDGFIVGIHSASNFTNTNNYFTSVPKNFMELLTNQEAQQWVSGWRLNADSVLWGGHKVFMVKPEEPFQPVKEATQL [G136T] | 0.0681 | 0.0463 | 0.0706 | 0.0677 | 0.0633 | 0.0681 | 0.071 | 0.064 | 0.0683 | 0.0607 | 0.0753 | 0.0437 | 0.0615 | 0.0566 | 0.0755 | 0.0622 | 0.0703 | 0.0706 | –
MGESLFKGPRDYNPISSSICHLTNESDGHTESLYGIGFGPFIITNKHLFRRNNGTLVVQSLHGVFKVKDTTTLQQHLVDGRDMIIIRMPKDFPPFPQKLKFREPQREERICLVTTNFQTKSMSSMVSDTSCTFPSGDGIFWKHWIQTKDGQCGSPLVSTRDGFIVGIHSASNFTNTNNYFTSVPKNFMELLTNQEAQQWVSGWRLNADSVLWGGHKVFMVKPEEPFQPVKEATQL [T31E] | 0.0679 | 0.0635 | 0.0773 | 0.0652 | 0.0534 | 0.0725 | – | 0.0676 | 0.0711 | – | – | – | – | 0.0431 | 0.07 | 0.0649 | 0.0634 | 0.0538 | 0.0787

Reference: the supplement of paper PMC12217912
